Measured values as given in PubChem BioAssay AID1159614 (National Center for Advancing Translational Sciences (NCATS), 2016).
Hit rate of the full screen: of about 45,000 compounds, about 65 (0.1%) were called active. Calls come from the whole dose curve; as a rule, active = well fitted activation curve with a large enough effect; inconclusive = small, poorly fitted or top-dose-only effect; inactive = no such curve, though single readings can be large or run the other way. Some of the results follow.

Molecular target: Galactocerebrosidase (Homo sapiens) (UniProt P54803)
UniProt P54803, sequence (P54803 whole entry, looked up): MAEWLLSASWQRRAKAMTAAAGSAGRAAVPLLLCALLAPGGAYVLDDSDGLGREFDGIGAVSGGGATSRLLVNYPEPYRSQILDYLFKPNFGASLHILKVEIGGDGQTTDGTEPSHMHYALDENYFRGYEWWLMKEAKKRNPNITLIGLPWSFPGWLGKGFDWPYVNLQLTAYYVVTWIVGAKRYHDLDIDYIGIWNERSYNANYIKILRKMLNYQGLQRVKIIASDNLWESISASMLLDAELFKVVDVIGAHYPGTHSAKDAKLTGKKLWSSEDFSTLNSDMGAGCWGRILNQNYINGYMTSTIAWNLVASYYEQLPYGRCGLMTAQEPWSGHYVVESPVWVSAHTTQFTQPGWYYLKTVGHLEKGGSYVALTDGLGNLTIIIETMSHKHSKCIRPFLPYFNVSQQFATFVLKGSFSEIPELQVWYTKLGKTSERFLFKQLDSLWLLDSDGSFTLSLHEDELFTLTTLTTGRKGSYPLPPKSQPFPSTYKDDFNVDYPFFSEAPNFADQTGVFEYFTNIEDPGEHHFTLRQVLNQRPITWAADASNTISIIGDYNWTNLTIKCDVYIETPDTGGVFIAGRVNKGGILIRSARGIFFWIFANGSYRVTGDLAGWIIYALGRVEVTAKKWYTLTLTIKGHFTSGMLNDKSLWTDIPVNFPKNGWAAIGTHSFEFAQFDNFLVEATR
Experiment: A Novel Cell-Based Assay to Identify Small Molecules for B -Galactocerebrosidase; note: 0% is about no effect; nearly all actives have a fitted effect of over 65% in size
Settings: 145M-Twi-hGALC-G270D cells (Twitcher mouse brain line with human GALC G270D), HMU-beta-Gal fluorescence, 48 h; series mostly up to 57.5 µM; activation: at the top concentration
Method in brief: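 Mutant human GALC (G270D), stably expressed in a Twitcher mouse brain cell line lacking endogenous GALC, is measured in live-treated cells via 6-hexadecanoylamino-4-methylumbelliferyl-β-galactoside hydrolysis (0.1 mM final, pH 5.2) with fluorescent detection.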

activation, inactive:
CCOC(=O)CCNC(=O)N1CCN(S(=O)(=O)c2ccc3c(ccn3C)c2)CC1 0.96%, CC(=O)c1ccc(NC(=O)c2cc3c(=O)oc4ccc(C)cc4c3s2)cc1 -54.2%, Cc1ccc(N2C(=O)C(CC(=O)Nc3ccc(F)cc3)N(Cc3ccc4c(c3)OCO4)C2=O)cc1 (stereo unspecified) -17.6%, Cc1ccc(CNC(=O)c2ccc3c(c2)NC(=O)C(CS(=O)(=O)Cc2cccc(F)c2)N3)cc1 (stereo unspecified) 10.6%, Cc1ccc(Sc2ccc(N3CCC(C(=O)Nc4ccc(Cl)cc4)CC3)nn2)cc1 -13.5%, CCc1ccc(C(=O)c2cn(CC(=O)NCc3ccc(C)cc3)c3nc(C)ccc3c2=O)cc1 7.88%, Cc1ccc(C(=O)Nc2ccc(S(=O)(=O)N(Cc3ccccc3)c3ccccc3)cc2)cc1 -12.5%, Cc1cccc(N2C(=O)C(CC(=O)Nc3cccc(F)c3)N(CCc3ccncc3)C2=O)c1 (stereo unspecified) -2.42%, O=S(=O)(c1ccc(Cl)cc1)c1nc(-c2ccccc2F)oc1NCc1ccccc1 -7.18%, COc1ccc(NC(=O)C2=CC(c3ccc4c(c3)OCO4)=NS(=O)(=O)N2C)cc1OC -8.87%, O=C(CSCn1nnc2c(=O)[nH]c(Cc3ccc(F)cc3)nc21)Nc1ccccc1 -26.3%, COc1ccc(-c2noc(-c3ccc(NCc4cccnc4)c([N+](=O)[O-])c3)n2)cc1OC -17.4%, Cc1cc(C)cc(-n2c(C)nc3cc(C(=O)O)ccc32)c1 5.22%, CCOc1ccc(C2=CC(c3cccc(Br)c3)n3c(nc4ccccc43)N2)cc1Cl (stereo unspecified) -12.6%, Cc1ccccc1OCCn1c(=N)n(C(C)C)c2ccccc21 -11.3%, Cc1ccc(N2CCN(C(=O)C3CCN(S(=O)(=O)c4ccc5c(c4)oc(=O)n5C)CC3)CC2C)cc1 (stereo unspecified) -33.9%, O=c1c2sc3ccccc3c2n(Cc2cccc(Cl)c2)c(=O)n1Cc1ccco1 -2.99%, Cc1cc(C)c(S(=O)(=O)NCCc2cc3ccc(C)c(C)c3[nH]c2=O)c(C)c1 -4.85%, CC(=O)c1ccc(NC(=O)CCc2c(C)nn(-c3ccc(N4CCOCC4)nn3)c2C)cc1 -4.22%, Cc1cccc(OCc2nc(CC(=O)Nc3ccc(C)c(C)c3)cs2)c1 -12.4%, CCOc1ccc(NC(=O)C2CCN(C(=O)N3CC(C)Oc4ccc(Cl)cc43)CC2)cc1 (stereo unspecified) -4.91%, COc1cc(-c2cc3n(C)c(C)c(CCC(=O)O)c(=O)n3n2)cc(OC)c1OC 2.72%, CCCn1c(CN2CCN(c3ccc(OC)cc3)CC2)nc2c1c(=O)[nH]c(=O)n2C -10.9%, Cn1c(=O)c2c(ncn2CC2OCCO2)n(C)c1=O -15.5%, O=C(Nc1ccc2oc(-c3cc(Br)ccc3Cl)nc2c1)c1cc2ccccc2o1 -17%, CC(C)CC(=O)Nc1nnc(S(=O)(=O)N(CC(C)C)c2ccccc2)s1 5.25%, Cc1cc2oc(C(=O)Nc3ccc(S(=O)(=O)N(C)Cc4ccccc4)cc3)cc(=O)c2cc1C -18.5%, Cc1ccc(CNC(=O)CCC(=O)N2CC3CCCN3c3ccccc32)cc1 (stereo unspecified) -9.03%, COc1ccccc1N1CCN(c2ccc(NC(=O)c3ccc(C)cc3)cc2C(=O)O)CC1 -8.73%, Cc1ccc(NC(=O)CCCn2c(=O)c3cccn3c3ccccc32)c(Cl)c1 -0.927%, Cc1c(CNC2CCCCC2)c(C(=O)O)c(C)n1Cc1c(F)cccc1Cl -13.7%, COc1ccc(CCNC(=O)CCc2c(C)nc3c(c(C)nn3-c3ccc(C)c(C)c3)c2C)cc1OC -22.7%, COc1ccccc1CNC(=O)c1cc2cc3ccc(Cl)cc3nc2o1 -24%, CCOc1ccccc1NC(=O)Cn1c(=O)n(CCC(=O)NCc2ccc3c(c2)OCO3)c(=O)c2ccccc21 -12%, COc1cc(OC)c(NC(=O)c2csc3c2CCC(C)C3)cc1Cl (stereo unspecified) -5.53%, COc1ccc(CNC(=O)c2cnc3sc(N4CCOCC4)nn3c2=O)cc1 4.77%, COc1cc(OC)c(NC(=O)N2CCSc3ccccc32)cc1Cl -28.7%, Cc1cc(Cl)ccc1NC(=O)c1cccc(NC(=O)N2CCSc3ncccc32)c1 -6.21%, O=C(CSC1=Nc2ccccc2C2=NC(CCC(=O)NC3CCCCC3)C(=O)N12)Nc1cccc(C(F)(F)F)c1 (stereo unspecified) -13.6%, COc1ccc(C(=O)Nc2cc3c(cc2C(=O)c2ccccc2Cl)OCCO3)cc1 -12.9%, Cc1ccc(CNC(=O)Cn2cc(S(=O)(=O)Cc3ccccc3Cl)c3ccccc32)cc1 -5.86%, CCOc1ccc(NC(=O)C(CC)n2c(=O)c(-c3ccccc3NC(C)=O)nc3ccccc32)cc1 (stereo unspecified) -40.6%, O=C(CCOc1ccccc1)N(Cc1cccnc1)c1nc2c(F)cc(F)cc2s1 -21.4%, Nc1nnc(SCC(=O)Nc2ccc(Cl)cc2)s1 -11.3%, COc1ccccc1CNC(=O)c1ccc(Cn2c(SCc3ccccc3)nc3cccnc32)cc1 -28.6%, CCNC(=O)CC1C(=O)N(c2ccc(F)cc2)C(=O)N1CCOC (stereo unspecified) -6.08%, O=C(CCc1ccccc1)NCc1nc2cccnc2n1Cc1ccc(F)cc1 2.73%, N#Cc1ccccc1CN1C(=O)c2ccccc2Sc2ccc(C(=O)OCc3ccco3)cc21 19.8%, CCCCCCCC(=O)OCC(COC(=O)CCCCCCC)OC(=O)CCCCCCC -11.6%, CCOc1ccc(C(=O)N2CCC(c3nnc(-c4ccccc4OC)o3)CC2)cc1 -18.8%, COC(=O)C(CCSC)NC(=O)C1CCN(c2ncnc3c2nc2n3CCCCC2)CC1 (stereo unspecified) -6.14%, CCOC(=O)c1c(C)oc2nc(C)nc(NCCCN3CCN(c4ccccc4)CC3)c12 -19.8%, CCOc1ccc(NC(=O)CCc2c(C)nc3nc(C)nn3c2C)cc1 -10.4%, Fc1ccc(-n2ncc3c(NC4CCCCCC4)ncnc32)cc1 -14.2%, CCOc1ccc(OCC)c(NC(=O)c2cc(S(=O)(=O)N3CCCC3)cn2C)c1 1.54%, COc1ccc(NC(=O)CN2CCN(Cc3ccccc3)S2(=O)=O)c(OC)c1 -17.2%, CCOC(=O)N1CCc2c(sc3c2c(=O)n(-c2ccccc2)c(=O)n3CC(=O)Nc2ccc(OC)cc2OC)C1 -15.8%, CC1CCc2c(sc(NC(=O)CCCOc3ccccc3)c2C(N)=O)C1 (stereo unspecified) -5.24%, COc1ccc(CCNc2ncnc3c2nnn3C)cc1 -25.4%, COC(=O)c1sc2cccc(F)c2c1S(=O)(=O)N1CCN(c2cccc(C)c2)C(C)C1 (stereo unspecified) -7.92%, Cc1nc2ccc(S(=O)(=O)N(CC(=O)Nc3ccc(F)cc3)Cc3ccccc3)cc2s1 -21%
